Measured values taken from article PMC6751209.
No constants are given. Whether binding was seen depends on the method and setting. Binding seen in cells or lysates may run through a third protein. Some entries that bind do so weakly or less than the wild type.

Protein sequences, listed by entry. Tags and fused reporters are not part of them.
UniProt Q12888: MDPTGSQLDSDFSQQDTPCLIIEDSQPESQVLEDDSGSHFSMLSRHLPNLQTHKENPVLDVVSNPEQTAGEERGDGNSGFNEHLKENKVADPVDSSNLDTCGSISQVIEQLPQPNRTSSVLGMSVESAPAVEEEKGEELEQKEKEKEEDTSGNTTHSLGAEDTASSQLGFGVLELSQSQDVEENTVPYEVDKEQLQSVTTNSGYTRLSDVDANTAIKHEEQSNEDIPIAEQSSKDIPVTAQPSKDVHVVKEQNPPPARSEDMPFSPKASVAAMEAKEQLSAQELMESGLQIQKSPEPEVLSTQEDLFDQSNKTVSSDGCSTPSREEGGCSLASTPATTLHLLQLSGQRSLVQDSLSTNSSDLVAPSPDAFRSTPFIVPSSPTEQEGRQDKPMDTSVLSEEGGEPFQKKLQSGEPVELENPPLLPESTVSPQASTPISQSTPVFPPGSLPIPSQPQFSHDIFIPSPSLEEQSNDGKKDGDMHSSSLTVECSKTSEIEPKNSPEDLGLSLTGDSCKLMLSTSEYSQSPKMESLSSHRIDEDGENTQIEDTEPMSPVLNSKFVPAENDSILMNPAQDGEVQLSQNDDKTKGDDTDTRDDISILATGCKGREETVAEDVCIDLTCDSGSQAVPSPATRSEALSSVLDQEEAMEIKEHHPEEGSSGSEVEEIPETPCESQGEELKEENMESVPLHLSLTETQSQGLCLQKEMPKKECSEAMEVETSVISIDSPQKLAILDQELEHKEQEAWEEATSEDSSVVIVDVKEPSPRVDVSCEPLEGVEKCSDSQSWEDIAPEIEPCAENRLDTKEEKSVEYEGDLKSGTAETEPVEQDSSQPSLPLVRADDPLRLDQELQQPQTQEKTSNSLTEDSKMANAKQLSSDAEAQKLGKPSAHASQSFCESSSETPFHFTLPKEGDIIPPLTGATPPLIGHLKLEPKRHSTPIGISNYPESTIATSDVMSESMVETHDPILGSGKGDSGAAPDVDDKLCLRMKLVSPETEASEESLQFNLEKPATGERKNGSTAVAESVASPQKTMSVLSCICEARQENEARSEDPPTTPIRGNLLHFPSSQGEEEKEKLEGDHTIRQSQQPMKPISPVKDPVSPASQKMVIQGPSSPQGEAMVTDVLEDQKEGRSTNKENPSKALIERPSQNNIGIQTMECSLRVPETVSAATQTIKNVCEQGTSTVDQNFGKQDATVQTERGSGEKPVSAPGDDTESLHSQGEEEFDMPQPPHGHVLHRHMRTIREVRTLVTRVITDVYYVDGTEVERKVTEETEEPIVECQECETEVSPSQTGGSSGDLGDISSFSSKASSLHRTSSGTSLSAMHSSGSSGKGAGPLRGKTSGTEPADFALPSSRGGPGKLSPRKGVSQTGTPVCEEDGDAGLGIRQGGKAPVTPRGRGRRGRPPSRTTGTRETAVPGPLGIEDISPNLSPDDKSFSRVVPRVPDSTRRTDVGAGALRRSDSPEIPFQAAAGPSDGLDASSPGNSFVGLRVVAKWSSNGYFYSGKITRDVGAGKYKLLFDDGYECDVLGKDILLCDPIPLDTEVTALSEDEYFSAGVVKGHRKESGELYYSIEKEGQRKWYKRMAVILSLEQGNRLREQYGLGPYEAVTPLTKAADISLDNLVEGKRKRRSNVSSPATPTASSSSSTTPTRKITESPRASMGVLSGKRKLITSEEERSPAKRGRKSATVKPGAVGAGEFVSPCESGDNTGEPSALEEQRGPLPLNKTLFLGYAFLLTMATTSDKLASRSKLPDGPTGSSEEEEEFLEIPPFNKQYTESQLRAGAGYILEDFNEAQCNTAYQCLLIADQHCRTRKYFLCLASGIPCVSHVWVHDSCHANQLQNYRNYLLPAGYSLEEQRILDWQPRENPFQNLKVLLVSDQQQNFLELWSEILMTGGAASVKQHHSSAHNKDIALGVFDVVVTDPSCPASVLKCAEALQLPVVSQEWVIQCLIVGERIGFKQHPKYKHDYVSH
UniProt Q5MIZ7: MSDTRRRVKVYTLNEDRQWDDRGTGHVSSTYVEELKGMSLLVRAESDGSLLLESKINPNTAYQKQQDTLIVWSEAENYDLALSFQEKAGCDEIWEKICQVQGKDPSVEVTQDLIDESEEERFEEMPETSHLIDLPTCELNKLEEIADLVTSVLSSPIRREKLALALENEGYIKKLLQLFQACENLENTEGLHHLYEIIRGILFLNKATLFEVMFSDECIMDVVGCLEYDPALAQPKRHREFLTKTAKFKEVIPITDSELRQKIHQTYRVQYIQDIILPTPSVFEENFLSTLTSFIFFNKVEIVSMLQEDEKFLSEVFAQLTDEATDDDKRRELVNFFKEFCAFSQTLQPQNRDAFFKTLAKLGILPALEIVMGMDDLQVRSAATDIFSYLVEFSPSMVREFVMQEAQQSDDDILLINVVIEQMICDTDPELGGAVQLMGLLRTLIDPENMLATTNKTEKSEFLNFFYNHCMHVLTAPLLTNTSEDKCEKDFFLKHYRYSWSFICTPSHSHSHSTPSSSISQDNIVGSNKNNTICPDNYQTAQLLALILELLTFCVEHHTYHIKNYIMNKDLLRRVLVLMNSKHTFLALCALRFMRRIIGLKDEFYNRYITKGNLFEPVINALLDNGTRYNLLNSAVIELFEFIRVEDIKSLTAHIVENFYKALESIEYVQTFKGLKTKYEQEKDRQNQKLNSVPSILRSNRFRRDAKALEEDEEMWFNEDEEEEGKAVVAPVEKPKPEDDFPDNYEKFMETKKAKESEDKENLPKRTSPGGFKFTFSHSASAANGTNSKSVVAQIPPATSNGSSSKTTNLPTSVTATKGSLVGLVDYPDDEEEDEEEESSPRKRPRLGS

Columns and labels:
FLAG-53BP1 [1] = target: FLAG-53BP1 (UniProt Q12888); test: co-IP; HeLa transiently transfected with FLAG-53BP1 and Myc-PP4R3β constructs, left asynchronous (Asyn); whole cell extracts, FLAG IP, immunoblot; NETN buffer
[2] = target: 53BP1 as used in Supplementary Fig. 1a (UniProt Q12888); test: co-IP; 53BP1 immunoprecipitated with full-length or deletion mutants of PP4R3β (Supplementary Fig. 1a); cells and bait not stated in the text shown; NETN lysis buffer
FLAG-53BP1 [3] = target: FLAG-53BP1 (UniProt Q12888); test: co-IP; HeLa transiently transfected with FLAG-53BP1 and Myc-PP4R3β constructs, synchronized to prometaphase (M) with nocodazole; whole cell extracts, FLAG IP, immunoblot; NETN buffer
[4] = target: 53BP1, endogenous in A375-AS cells (human (endogenous in A375)) (UniProt Q12888); test: co-IP; Endogenous 53BP1 immunoprecipitated from DMSO-treated A375-AS cells at time points after release from prometaphase arrest; immunoblot for endogenous PP4R3β
[5] = target: 53BP1, endogenous in A375-AS cells (human (endogenous in A375)) (UniProt Q12888); test: condition: only A375-AS cells treated with 1NMPP1 (CDK5 inhibited); co-IP; Endogenous 53BP1 immunoprecipitated from 1NMPP1-treated A375-AS cells (CDK5 inhibited) at time points after release from prometaphase arrest; immunoblot for endogenous PP4R3β
[6] = target: FLAG-HA-PP4R3β, full length (UniProt Q5MIZ7); test: co-IP; HeLa stably expressing FLAG-HA PP4R3β, arrested in prometaphase; FLAG immunoprecipitation, elution analysed by immunoblot for endogenous CDK5

## Myc-PP4R3β, full length, wild type (from UniProt Q5MIZ7 1-849)
FLAG-53BP1 [1]
  binding: binds weakly
[2]
  binding: binds
FLAG-53BP1 [3]
  binding: binds

## PP4R3β, endogenous in A375-AS cells (from UniProt Q5MIZ7 1-849)
[4]
  binding: binds
[5]
  binding: no binding

## CDK5, endogenous (from UniProt Q00535 1-292) (enzyme)
[6]
  binding: binds
